# Measurements reported in the supplement of paper PMC10037445.
# Where “and” joins values, the source holds several entries; their conditions need not be identical. Equal values may be shown once. Over roughly 2,900 compounds, “IRF Lucia reporter activity, fold change vs agonist alone” has its median near 0.9; the highest 2% begin near 2.8. This is one part of the list.
# What was measured:
# RAW-Dual [1] = test: IRF Lucia reporter activity, fold change vs agonist alone; higher = enhanced IRF activity; settings: agonist: MPLA (TLR4) […]
# In short: (§1)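 Reporter activity is given as fold change relative to agonist-alone wells. To measure it, 50 nL of library stock was pin-tooled onto RAW-Dual macrophages (50,000 cells/well, DMEM, 384-well plates), a PRR agonist followed 1 h later, and cells stayed at 37 °C, 5% CO2. Twenty hours on, supernatant was assayed for IRF (QuantiLuc luminescence) and NF-κB (QuantiBlue, 620 nm absorbance), and wells under 70% of agonist-control IncuCyte confluency in both mask sets were marked cytotoxic.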
# RAW-Dual [2] = test: IRF Lucia reporter activity, fold change vs agonist alone; cytotoxicity flag (confluency mask): not cytotoxic; higher = enhanced IRF activity
# In short: as §1
# RAW-Dual [3] = test: IRF Lucia reporter activity, fold change vs agonist alone; cytotoxicity flag (confluency mask): cytotoxic (confluency <70% of control); higher = enhanced IRF activity
# In short: as §1
# [4] = library stock concentration (final ~1000-fold dilution): 10 mM, cytotoxicity flag (confluency mask): not cytotoxic
# [5] = agonist: 3'3'-cGAMP (STING) 10 ug/mL
# [6] = library stock concentration (final ~1000-fold dilution): 10 mM, cytotoxicity flag (confluency mask): cytotoxic (confluency <70% of control)
structure (smiles),measurement,setting,value
COc1ccccc1Oc1c(NS(=O)(=O)c2ccc(C(C)(C)C)cc2)nc(-c2ncccn2)nc1OCCO.O,IRF Lucia reporter activity,RAW-Dual [1]; [4],1.1
COc1ccccc1Oc1c(NS(=O)(=O)c2ccc(C(C)(C)C)cc2)nc(-c2ncccn2)nc1OCCO.O (library stock concentration (final ~1000-fold dilution): 10 mM),IRF Lucia reporter activity,RAW-Dual [2]; [5],1
same,IRF Lucia reporter activity,RAW-Dual [2]; agonist: LPS (TLR4) 0.1 ug/mL,1.19
CN(Cc1cnc2nc(N)nc(N)c2n1)c1ccc(C(=O)NC(CCC(=O)O)C(=O)O)cc1 (configuration not stated) (library stock concentration (final ~1000-fold dilution): 10 mM water),IRF Lucia reporter activity,RAW-Dual [2]; [5],0.768
same,IRF Lucia reporter activity,RAW-Dual [2]; agonist: LPS (TLR4) 0.1 ug/mL,0.849
CN(Cc1cnc2nc(N)nc(N)c2n1)c1ccc(C(=O)NC(CCC(=O)O)C(=O)O)cc1 (configuration not stated),IRF Lucia reporter activity,"RAW-Dual [1]; library stock concentration (final ~1000-fold dilution): 10 mM water, cytotoxicity flag (confluency mask): not cytotoxic",1.3
same,IRF Lucia reporter activity,RAW-Dual [1]; [6],0.987
CN(Cc1cnc2nc(N)nc(N)c2n1)c1ccc(C(=O)NC(CCC(=O)O)C(=O)O)cc1 (configuration not stated) (library stock concentration (final ~1000-fold dilution): 10 mM),IRF Lucia reporter activity,RAW-Dual [3]; [5],0.801
same,IRF Lucia reporter activity,RAW-Dual [3]; agonist: LPS (TLR4) 0.1 ug/mL,0.929
COc1cc(F)ccc1-c1ncnc(Nc2cccc(CS(C)(=N)=O)c2)n1 (configuration not stated) (library stock concentration (final ~1000-fold dilution): 10 mM),IRF Lucia reporter activity,RAW-Dual [3]; [5],0.0171
same,IRF Lucia reporter activity,RAW-Dual [3]; agonist: LPS (TLR4) 0.1 ug/mL,0.0244
Nc1cc(C(F)(F)F)c(-c2nc(N3CCOCC3)nc(N3CCOCC3)n2)cn1 (library stock concentration (final ~1000-fold dilution): 10 mM),IRF Lucia reporter activity,RAW-Dual [2]; [5],0.238
same,IRF Lucia reporter activity,RAW-Dual [2]; agonist: LPS (TLR4) 0.1 ug/mL,1.01
CCN1CCCC1CNC(=O)c1cc(S(N)(=O)=O)ccc1OC (configuration not stated) (library stock concentration (final ~1000-fold dilution): 10 mM),IRF Lucia reporter activity,RAW-Dual [2]; [5],1.01 and 0.953
same,IRF Lucia reporter activity,RAW-Dual [2]; agonist: LPS (TLR4) 0.1 ug/mL,1.28 and 1.11
Cl.Nc1c2c(nc3ccccc13)CCCC2,IRF Lucia reporter activity,RAW-Dual [1]; [4],1.03
Cl.Nc1c2c(nc3ccccc13)CCCC2 (library stock concentration (final ~1000-fold dilution): 10 mM),IRF Lucia reporter activity,RAW-Dual [2]; [5],0.549
same,IRF Lucia reporter activity,RAW-Dual [2]; agonist: LPS (TLR4) 0.1 ug/mL,1.24
Cc1cc(N2CCN(C3CNC(C(=O)N4CCSC4)C3)CC2)n(-c2ccccc2)n1 (configuration not stated),IRF Lucia reporter activity,RAW-Dual [1]; [4],1.02
Cc1cc(N2CCN(C3CNC(C(=O)N4CCSC4)C3)CC2)n(-c2ccccc2)n1 (configuration not stated) (library stock concentration (final ~1000-fold dilution): 10 mM),IRF Lucia reporter activity,RAW-Dual [2]; [5],0.982
same,IRF Lucia reporter activity,RAW-Dual [2]; agonist: LPS (TLR4) 0.1 ug/mL,1.22
CC1(C)C=C(CN2C/C(=C\c3ccc(F)cc3)C(=O)/C(=C/c3ccc(F)cc3)C2)C(C)(C)N1O,IRF Lucia reporter activity,RAW-Dual [1]; [4],0.967
CC1(C)C=C(CN2C/C(=C\c3ccc(F)cc3)C(=O)/C(=C/c3ccc(F)cc3)C2)C(C)(C)N1O (library stock concentration (final ~1000-fold dilution): 10 mM),IRF Lucia reporter activity,RAW-Dual [2]; [5],0.118
same,IRF Lucia reporter activity,RAW-Dual [2]; agonist: LPS (TLR4) 0.1 ug/mL,0.531
Nc1ncn(C2CC(O)C(CO)O2)c(=O)n1 (configuration not stated),IRF Lucia reporter activity,RAW-Dual [1]; [4],1.46
Nc1ncn(C2CC(O)C(CO)O2)c(=O)n1 (configuration not stated) (library stock concentration (final ~1000-fold dilution): 10 mM),IRF Lucia reporter activity,RAW-Dual [2]; [5],1.18
same,IRF Lucia reporter activity,RAW-Dual [2]; agonist: LPS (TLR4) 0.1 ug/mL,1.48
COc1ccc(-c2oc3c(CC=C(C)C)c(O)cc(O)c3c(=O)c2OC2OC(C)C(O)C(O)C2O)cc1 (configuration not stated),IRF Lucia reporter activity,RAW-Dual [1]; [6],0.839
COc1ccc(-c2oc3c(CC=C(C)C)c(O)cc(O)c3c(=O)c2OC2OC(C)C(O)C(O)C2O)cc1 (configuration not stated) (library stock concentration (final ~1000-fold dilution): 10 mM),IRF Lucia reporter activity,RAW-Dual [3]; [5],0.425
same,IRF Lucia reporter activity,RAW-Dual [3]; agonist: LPS (TLR4) 0.1 ug/mL,0.805
NNC(=O)c1ccncc1,IRF Lucia reporter activity,RAW-Dual [1]; [4],0.949
NNC(=O)c1ccncc1 (library stock concentration (final ~1000-fold dilution): 10 mM),IRF Lucia reporter activity,RAW-Dual [2]; [5],1.02
same,IRF Lucia reporter activity,RAW-Dual [2]; agonist: LPS (TLR4) 0.1 ug/mL,0.747
CN(C(=O)CCCOc1ccc2[nH]c(=O)ccc2c1)C1CCCCC1,IRF Lucia reporter activity,RAW-Dual [1]; [4],0.922
CN(C(=O)CCCOc1ccc2[nH]c(=O)ccc2c1)C1CCCCC1 (library stock concentration (final ~1000-fold dilution): 10 mM),IRF Lucia reporter activity,RAW-Dual [2]; [5],0.965
same,IRF Lucia reporter activity,RAW-Dual [2]; agonist: LPS (TLR4) 0.1 ug/mL,0.574
Cl.OC1C=C2CCN3Cc4cc5c(cc4C(C1O)C23)OCO5 (configuration not stated),IRF Lucia reporter activity,RAW-Dual [1]; [4],1.34
Cl.OC1C=C2CCN3Cc4cc5c(cc4C(C1O)C23)OCO5 (configuration not stated) (library stock concentration (final ~1000-fold dilution): 10 mM),IRF Lucia reporter activity,RAW-Dual [2]; [5],0.206
same,IRF Lucia reporter activity,RAW-Dual [2]; agonist: LPS (TLR4) 0.1 ug/mL,1.56
CCN(CC)CCNC(=O)c1ccc(N)cc1.Cl,IRF Lucia reporter activity,RAW-Dual [1]; [4],1.06
CCN(CC)CCNC(=O)c1ccc(N)cc1.Cl (library stock concentration (final ~1000-fold dilution): 10 mM),IRF Lucia reporter activity,RAW-Dual [2]; [5],1.01
same,IRF Lucia reporter activity,RAW-Dual [2]; agonist: LPS (TLR4) 0.1 ug/mL,1.12
Cc1ccc(S(=O)(=O)OCC(=O)Nc2ccc(C(=O)O)c(O)c2)cc1,IRF Lucia reporter activity,RAW-Dual [1]; [4],0.969
Cc1ccc(S(=O)(=O)OCC(=O)Nc2ccc(C(=O)O)c(O)c2)cc1 (library stock concentration (final ~1000-fold dilution): 10 mM),IRF Lucia reporter activity,RAW-Dual [2]; [5],0.977
same,IRF Lucia reporter activity,RAW-Dual [2]; agonist: LPS (TLR4) 0.1 ug/mL,0.0308
O=C(CCc1ccc(O)cc1)c1c(O)cc(OC2OC(CO)C(O)C(O)C2O)cc1O (configuration not stated) (library stock concentration (final ~1000-fold dilution): 10 mM),IRF Lucia reporter activity,RAW-Dual [2]; [5],0.953
same,IRF Lucia reporter activity,RAW-Dual [2]; agonist: LPS (TLR4) 0.1 ug/mL,1.02
